# According to publication PMC9911399, “Two distinct binding modes provide the RNA-binding protein RbFox with extraordinary sequence specificity”:
# Numbering of substitutions follows the chain as printed; changes in the protein carry UniProt numbers. The list shows a part of the results.
# T1: RBFOX1 RRM (Homo sapiens, UniProt Q9NWB1 109-208)
# T1 sequence: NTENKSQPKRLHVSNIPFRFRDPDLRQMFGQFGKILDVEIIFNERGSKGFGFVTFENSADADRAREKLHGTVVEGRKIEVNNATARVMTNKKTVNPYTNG
# B1: GAAUUAC (DNA:RNA)
# RNA: GGGAGACCGGAAUUCAGAUUGUCCGAAUUACUUAAAUCCCGUCGUAGCCACCA
# DNA 1: CAATCTGAATTCCGGTCTCCC
# DNA 2: TGGTGGCTACGACGGGATT
# B2: ACUAUAG (DNA:RNA)
# RNA: B1 RNA with G25A, A26C, A27U, U28A, C31G
# DNA 1: CAATCTGAATTCCGGTCTCCC
# DNA 2: TGGTGGCTACGACGGGATT
# B3: UUGGGUC (DNA:RNA)
# RNA: B1 RNA with G25U, A26U, A27G, U28G, U29G, A30U
# DNA 1: CAATCTGAATTCCGGTCTCCC
# DNA 2: TGGTGGCTACGACGGGATT
# B4: CUCAGCU (DNA:RNA)
# RNA: GGGAGACCGGAAUUCAGAUUGUCCCUCAGCUUUAAAUCCCGUCGUAGCCACCA
# DNA 1: CAATCTGAATTCCGGTCTCCC
# DNA 2: TGGTGGCTACGACGGGATT
# B5: UAGACGA (DNA:RNA)
# RNA: B4 RNA with C25U, U26A, C27G, G29C, C30G, U31A
# DNA 1: CAATCTGAATTCCGGTCTCCC
# DNA 2: TGGTGGCTACGACGGGATT
# B6: AGGCAUG (DNA:RNA)
# RNA: GGGAGACCGGAAUUCAGAUUGUCCAGGCAUGUUAAAUCCCGUCGUAGCCACCA
# DNA 1: CAATCTGAATTCCGGTCTCCC
# DNA 2: TGGTGGCTACGACGGGATT
# B7: UAACCGC (DNA:RNA)
# RNA: B1 RNA with G25U, U28C, U29C, A30G
# DNA 1: CAATCTGAATTCCGGTCTCCC
# DNA 2: TGGTGGCTACGACGGGATT
# B8: CCUAGAC (DNA:RNA)
# RNA: B4 RNA with U26C, C27U, C30A, U31C
# DNA 1: CAATCTGAATTCCGGTCTCCC
# DNA 2: TGGTGGCTACGACGGGATT
# B9: CCGACUA (DNA:RNA)
# RNA: B6 RNA with A25C, G26C, C28A, A29C, G31A
# DNA 1: CAATCTGAATTCCGGTCTCCC
# DNA 2: TGGTGGCTACGACGGGATT
# B10: UAACUUA (DNA:RNA)
# RNA: B1 RNA with G25U, U28C, A30U, C31A
# DNA 1: CAATCTGAATTCCGGTCTCCC
# DNA 2: TGGTGGCTACGACGGGATT
# B11: UAUACAA (DNA:RNA)
# RNA: B1 RNA with G25U, A27U, U28A, U29C, C31A
# DNA 1: CAATCTGAATTCCGGTCTCCC
# DNA 2: TGGTGGCTACGACGGGATT
# B12: AUCAGUU (DNA:RNA)
# RNA: B4 RNA with C25A, C30U
# DNA 1: CAATCTGAATTCCGGTCTCCC
# DNA 2: TGGTGGCTACGACGGGATT
# B13: UUUCCGA (DNA:RNA)
# RNA: B6 RNA with A25U, G26U, G27U, A29C, U30G, G31A
# DNA 1: CAATCTGAATTCCGGTCTCCC
# DNA 2: TGGTGGCTACGACGGGATT
# B14: UCUAGCA (DNA:RNA)
# RNA: B4 RNA with C25U, U26C, C27U, U31A
# DNA 1: CAATCTGAATTCCGGTCTCCC
# DNA 2: TGGTGGCTACGACGGGATT
# B15: UGUAAAC (DNA:RNA)
# RNA: B6 RNA with A25U, G27U, C28A, U30A, G31C
# DNA 1: CAATCTGAATTCCGGTCTCCC
# DNA 2: TGGTGGCTACGACGGGATT
# B16: CAGUUUG (DNA:RNA)
# RNA: B6 RNA with A25C, G26A, C28U, A29U
# DNA 1: CAATCTGAATTCCGGTCTCCC
# DNA 2: TGGTGGCTACGACGGGATT
# B17: AUUAUCC (DNA:RNA)
# RNA: B4 RNA with C25A, C27U, G29U, U31C
# DNA 1: CAATCTGAATTCCGGTCTCCC
# DNA 2: TGGTGGCTACGACGGGATT
# B18: CCCCUCU (DNA:RNA)
# RNA: B4 RNA with U26C, A28C, G29U
# DNA 1: CAATCTGAATTCCGGTCTCCC
# DNA 2: TGGTGGCTACGACGGGATT
# B19: CCGGCCA (DNA:RNA)
# RNA: B4 RNA with U26C, C27G, A28G, G29C, U31A
# DNA 1: CAATCTGAATTCCGGTCTCCC
# DNA 2: TGGTGGCTACGACGGGATT
# B20: AAGGAGU (DNA:RNA)
# RNA: B6 RNA with G26A, C28G, U30G, G31U
# DNA 1: CAATCTGAATTCCGGTCTCCC
# DNA 2: TGGTGGCTACGACGGGATT
# Target: T1, RBFOX1 RRM
# Assay: EMSA; HiTS-Eq, 1 nM pool, 10 min; buffer printed only for the single-RNA assays: 10 mM Tris pH 7.5, 150 mM NaCl, 3.4 mM EDTA, 0.001% NP-40, 30 C
# Conditions: tags: His6 N-terminal (pET28a); label: 5' 32P
# How it was run: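 A pool of RNA with 7 randomized nucleotides, 5′-radiolabelled and with DNA-annealed flanks, was equilibrated at 1 nM for 10 min in 50 µL with purified RbFox RRM, wild type or mutant, across increasing protein concentrations. Free RNA was separated by 8% native PAGE, excised, reverse-transcribed, barcoded by PCR and sequenced. Relative association constants were obtained from read-count changes of each RNA species versus the control reaction and normalised to the cognate motif.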
row,Binder,binding signal
1,B1,0.00361 KA relative to UGCAUGU
2,B2,0.00317 KA relative to UGCAUGU
3,B3,0.0314 KA relative to UGCAUGU
4,B4,0.00638 KA relative to UGCAUGU
5,B5,0.00635 KA relative to UGCAUGU
6,B6,0.662 KA relative to UGCAUGU
7,B7,0.0039 KA relative to UGCAUGU
8,B8,0.00636 KA relative to UGCAUGU
9,B9,0.00505 KA relative to UGCAUGU
10,B10,0.0049 KA relative to UGCAUGU
11,B11,0.00283 KA relative to UGCAUGU
12,B12,0.0026 KA relative to UGCAUGU
13,B13,0.00826 KA relative to UGCAUGU
14,B14,0.0115 KA relative to UGCAUGU
15,B15,0.0104 KA relative to UGCAUGU
16,B16,0.0144 KA relative to UGCAUGU
17,B17,0.00128 KA relative to UGCAUGU
18,B18,0.00568 KA relative to UGCAUGU
19,B19,0.00886 KA relative to UGCAUGU
20,B20,0.00853 KA relative to UGCAUGU
